According to a collection of fitness landscapes (doi:10.1126/science.1257360):
The list shows a part of the results.

B1: PhoQ; a variant is named by its letters at X, in order, P23837 (parent)
chain: MKKLLRLFFPLSLRVRFLLATAAVVLVLSLAYGMVALIGYSVSFDKTTFRLLRGESNLFYTLAKWENNKLHVELPENIDKQSPTMTLIYDENGQLLWAQRDVPWLMKMIQPDWLKSNGFHEIEADVNDTSLLLSGDHSIQQQLQEVREDDDDAEMTHSVAVNVYPATSRMPKLTIVVVDTIPVELKSSYMVWSWFIYVLSANLLLVIPLLWVAAWWSLRPIEALAKEVRELEEHNRELLNPATTRELTSLVRNLNRLLKSERERYDKYRTTLTDLTHSLKTPLXXLQXXLRSLRSEKMSVSDAEPVMLEQISRISQQIGYYLHRASMRGGTLLSRELHPVAPLLDNLTSALNKVYQRKGVNISLDISPEISFVGEQNDFVEVMGNVLDNACKYCLEFVEISARQTDEHLYIVVEDDGPGIPLSKREVIFDRGQRVDTLRPGQGVGLAVAREITEQYEGKIVAGESMLGGARMEVIFGRQHSAPKDE

Variants of: B1
Assay: enrichment ratio after two sorts for PhoP signalling (ratio (wild type AVST 3.29)); higher = more functional
Settings: with PhoP (E. coli)

| Variant | enrichment ratio |
| --- | --- |
| MDNA | ≤ 0.25 |
| ICDS | ≤ 0.25 |
| QICH | ≤ 0.25 |
| IRFG | ≤ 0.25 |
| TWTA | ≤ 0.25 |
| QYFM | ≤ 0.25 |
| AGFW | ≤ 0.25 |
| WKDQ | ≤ 0.25 |
| TPIW | ≤ 0.25 |
| LSVV | ≤ 0.25 |
| FQGK | ≤ 0.25 |
| FAIF | ≤ 0.25 |
| SMPV | ≤ 0.25 |
| LYDC | ≤ 0.25 |
| VNNT | ≤ 0.25 |
| DCMF | ≤ 0.25 |
| ICSP | ≤ 0.25 |
| FKDD | ≤ 0.25 |
| ASEV | ≤ 0.25 |
| MIKK | ≤ 0.25 |
| AISV | 15.9 |
| LKRS | ≤ 0.25 |
| TMWA | ≤ 0.25 |
| IDHF | ≤ 0.25 |
| KSGC | ≤ 0.25 |

| Variant | enrichment ratio |
| --- | --- |
| LCAK | ≤ 0.25 |
| KLQG | ≤ 0.25 |
| PCTW | ≤ 0.25 |
| DKTP | ≤ 0.25 |
| GSAG | 1.06 |
| SQAP | ≤ 0.25 |
| DFVT | ≤ 0.25 |
| SWPP | ≤ 0.25 |
| NRKH | ≤ 0.25 |
| KYRN | ≤ 0.25 |
| MHQH | ≤ 0.25 |
| QGTH | ≤ 0.25 |
| NDNV | ≤ 0.25 |
| GYEP | ≤ 0.25 |
| EYSW | ≤ 0.25 |
| SALL | 18.6 |
| FPVM | ≤ 0.25 |
| PQKH | ≤ 0.25 |
| ILNM | ≤ 0.25 |
| LKYK | ≤ 0.25 |
| KEYF | ≤ 0.25 |
| MMLS | ≤ 0.25 |
| YVHD | ≤ 0.25 |
| QMAG | ≤ 0.25 |
| AWCV | ≤ 0.25 |

| Variant | enrichment ratio |
| --- | --- |
| NTCR | ≤ 0.25 |
| LKMD | ≤ 0.25 |
| WDMD | ≤ 0.25 |
| NRNF | ≤ 0.25 |
| KGSS | ≤ 0.25 |
| YCQA | ≤ 0.25 |
| NQGV | ≤ 0.25 |
| YAIM | ≤ 0.25 |
| LHLE | ≤ 0.25 |
| SEAL | 7.85 |
| AVQI | ≤ 0.25 |
| LYDG | ≤ 0.25 |
| KKVQ | ≤ 0.25 |
| QEHQ | ≤ 0.25 |
| LNSS | ≤ 0.25 |
| HMGL | ≤ 0.25 |
| QVPF | ≤ 0.25 |
| SQTC | 20.9 |
| WYPF | ≤ 0.25 |
| KLVK | ≤ 0.25 |
| KRTY | ≤ 0.25 |
| MAGN | 13.5 |
| YFKR | 0.642 |
| QRPS | ≤ 0.25 |
| LLAA | ≤ 0.25 |

| Variant | enrichment ratio |
| --- | --- |
| IIWS | ≤ 0.25 |
| HILK | ≤ 0.25 |
| INWC | ≤ 0.25 |
| DQPE | ≤ 0.25 |
| FWIL | ≤ 0.25 |
| GWPQ | ≤ 0.25 |
| QWIV | ≤ 0.25 |
| DCGE | ≤ 0.25 |
| AGHM | ≤ 0.25 |
| FVMK | 0.777 |
| HYTL | ≤ 0.25 |
| YMQY | ≤ 0.25 |
| NAWH | ≤ 0.25 |
| DLYG | ≤ 0.25 |
| DTAD | ≤ 0.25 |
| YSSR | ≤ 0.25 |
| PEMH | ≤ 0.25 |
| ITNQ | ≤ 0.25 |
| GMPE | ≤ 0.25 |
| LNPK | ≤ 0.25 |
| DPIW | ≤ 0.25 |
| KDFH | ≤ 0.25 |
| LSEN | ≤ 0.25 |
| ACYF | ≤ 0.25 |
| FHIG | ≤ 0.25 |

| Variant | enrichment ratio |
| --- | --- |
| RYGN | ≤ 0.25 |
| IHID | ≤ 0.25 |
| KKCY | ≤ 0.25 |
| VAQM | ≤ 0.25 |
| AECL | 20.9 |
| AAKI | ≤ 0.25 |
| GKPT | ≤ 0.25 |
| MPQF | ≤ 0.25 |
| IDWE | ≤ 0.25 |
| DEYY | ≤ 0.25 |
| REAL | ≤ 0.25 |
| HRDP | ≤ 0.25 |
| ITWR | ≤ 0.25 |
| QCWW | ≤ 0.25 |
| GQYG | ≤ 0.25 |
| VWPG | ≤ 0.25 |
| QNVI | ≤ 0.25 |
| HHDC | ≤ 0.25 |
| GKDY | ≤ 0.25 |
| QRYF | ≤ 0.25 |
| WYEE | ≤ 0.25 |
| DKVT | ≤ 0.25 |
| ITPM | ≤ 0.25 |
| NCES | ≤ 0.25 |
| IGYF | ≤ 0.25 |

| Variant | enrichment ratio |
| --- | --- |
| IWGE | ≤ 0.25 |
| YCNV | ≤ 0.25 |
| GTAD | ≤ 0.25 |
| VGCF | ≤ 0.25 |
| DVML | ≤ 0.25 |
| MFHA | ≤ 0.25 |
| FQCE | ≤ 0.25 |
| KLRY | ≤ 0.25 |
| WKDF | ≤ 0.25 |
| NSTI | ≤ 0.25 |
| RVRM | ≤ 0.25 |
| SDKV | ≤ 0.25 |
| YLCS | 0.567 |
| RHRK | ≤ 0.25 |
| NQGW | ≤ 0.25 |
| DMIK | ≤ 0.25 |
| KTKQ | ≤ 0.25 |
| RNTF | ≤ 0.25 |
| YRYG | ≤ 0.25 |
| FMAK | ≤ 0.25 |
| TSFD | ≤ 0.25 |
| MIGM | 2.52 |
| RTNK | ≤ 0.25 |
| HPPC | ≤ 0.25 |
| MAYR | ≤ 0.25 |

| Variant | enrichment ratio |
| --- | --- |
| NVNK | ≤ 0.25 |
| FYMF | ≤ 0.25 |
| GRWC | ≤ 0.25 |
| VMKM | ≤ 0.25 |
| QQQV | ≤ 0.25 |
| YKII | ≤ 0.25 |
| FISA | ≤ 0.25 |
| GFDD | ≤ 0.25 |
| TYQS | ≤ 0.25 |
| SKYD | ≤ 0.25 |
| RAHT | ≤ 0.25 |
| SYCP | ≤ 0.25 |
| NMRS | ≤ 0.25 |
| LWDF | ≤ 0.25 |
| PSTA | ≤ 0.25 |
| SNVE | ≤ 0.25 |
| AQAA | 12.7 |
| KGHE | ≤ 0.25 |
| RADK | ≤ 0.25 |
| RRPV | ≤ 0.25 |
| AMFA | ≤ 0.25 |
| LDYG | ≤ 0.25 |
| KCWS | ≤ 0.25 |
| TFHT | ≤ 0.25 |
| EELW | ≤ 0.25 |

| Variant | enrichment ratio |
| --- | --- |
| GKEE | ≤ 0.25 |
| KFWS | ≤ 0.25 |
| DPTP | ≤ 0.25 |
| TGWH | 19.8 |
| YEPQ | ≤ 0.25 |
| QSAH | ≤ 0.25 |
| MYCG | ≤ 0.25 |
| NGCD | ≤ 0.25 |
| EASI | ≤ 0.25 |
| LMNL | ≤ 0.25 |
| TQRL | ≤ 0.25 |
| LHCV | ≤ 0.25 |
| NAHK | ≤ 0.25 |
| TCMS | 10.9 |
| NTYA | ≤ 0.25 |
| QLFW | ≤ 0.25 |
| RKFL | ≤ 0.25 |
| VQMG | ≤ 0.25 |
| QNDI | ≤ 0.25 |
| LSVM | ≤ 0.25 |
